Source: PubChem BioAssay AID1345082 (National Center for Advancing Translational Sciences (NCATS), 2018)
Screen size: about 94,000 compounds; about 4,000 (4.3%) were called active. The shares of active, inactive and inconclusive entries below differ from those in the screen. The call rests on the fitted dose curve; in most records, active means well fitted inhibition curve with a large enough effect; inconclusive means small, poorly fitted or top-dose-only effect; inactive means no such curve, though single readings can be large or run the other way. A potency beside an inconclusive call is a rough fit, not a confirmed value.
On the % scale 0 is the no-effect control and ±100 the full control effect; potency means the concentration at half of the fitted maximal effect; tags describe the fitted curve by direction and shape.

Assay: Cytotoxic Profiling in NIH 3T3 Cell Line of Diverse Libraries Using Quantitative High-Throughput Screening; further: nearly all actives have a fitted effect of over 55% in size
Conditions: NIH 3T3 viability, CellTiter-Glo ATP luminescence, 48-72 h; activity change, negative = cytotoxicity: at 96.7 µM (top of the series) unless noted; series mostly up to 96.7 µM
Procedure, shortened: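 Cytotoxicity is measured as loss of cellular ATP: NIH 3T3 cells (400/well) are exposed to compound for 48 or 72 hr at 37 °C, then CellTiter-Glo luminescence is imaged after 10 min at room temperature.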
In the case of `CSc1cccc(-n2ccnc2-c2cc3n(n2)CCCNC3)c1`, the Potency is reported as inconclusive: 50.1 µM [inhibitor, partial curve, poor fit]. With `CC(=O)N1CCc2nn(CC(=O)Nc3ccc(F)c(F)c3)c(=O)cc2C1` the “outcome” value was “inactive”. With `CCOC(=O)C1c2c(OC)ccc3c2C(=CC(C)(C)CO3)CN1Cc1ccccc1` (stereo not given) the Potency was inconclusive: 56.2 µM [inhibitor, partial curve, poor fit]. For `CN(C)C(=O)c1cccnc1OC1CCN(S(=O)(=O)Cc2ccccc2F)C1` (stereo not given), the “outcome” value was “inactive”. With `CCOc1ccccc1C(=O)N1CCC(Oc2ccc(C(=O)N(C)C)cn2)CC1` the “activity change, negative = cytotoxicity” value was inactive: 3.21%. In the case of `COc1cccc(-c2cc(C3CCN(C(=O)Nc4ccccc4OC)CC3)[nH]n2)c1`, the Potency is reported as inconclusive: 25.1 µM [inhibitor, full curve]. With `Cc1cccc(-c2nocc2CCC(=O)NC2CCN(Cc3ccccc3)CC2)c1` the Potency was inconclusive: 50.1 µM [inhibitor, partial curve, poor fit]. For `CC(=O)N1CCc2c(c3ccccc3n2C)C1`, the “activity change, negative = cytotoxicity” value was inactive: -13.5%. For `Cn1cccc1C(=O)N1CCCC(n2cc(-c3nc(-c4ccccc4)no3)nn2)C1` (stereo not given), the Potency was inconclusive: 44.7 µM [inhibitor, partial curve, poor fit]. With `COCC(=O)NC1CCN(Cc2cccc(-c3ccc(F)c(F)c3)c2)CC1` the Potency was inconclusive: 56.2 µM [inhibitor, partial curve, poor fit]. For `COc1cccc(CN2Cc3cc(NC(=O)c4ccc(F)cc4F)ccc3OC(C)C2=O)c1OC` (stereo not given), the Potency was inconclusive: 31.6 µM [inhibitor, partial curve]. With `CNC(=O)c1cc(C2CC2)nc2c1c(C1CCN([S+](=O)([O-])c3c(C)noc3C)CC1)nn2C` the Potency was inconclusive: 50.1 µM [inhibitor, single point]. For `COCc1nc(CNC(=O)c2sc3cccc(F)c3c2Cl)no1`, the Potency was inconclusive: 56.2 µM [inhibitor, partial curve, poor fit]. For `Cc1cnc(CC2CCN(C(=O)C3CC3)CC2)n1Cc1ccccc1`, the Potency was inconclusive: 50.1 µM [inhibitor, partial curve, poor fit]. For `CN(C)CCN(C)[C@@H]1[C@H](O)[C@H](CO)O[C@@H]1CNC(=O)Nc1ccccc1`, the “activity change, negative = cytotoxicity” value was inactive: 1.19%. In the case of `CCOC(=O)C1=CN(CC(=O)Nc2ccc(Br)cc2F)S(=O)(=O)N=C1C`, the “activity change, negative = cytotoxicity” value is reported as inactive: -25%. In the case of `O=C(Nc1ccc(Cl)cc1)N1CCC(N2CC3CCCN3C2=O)CC1` (stereo not given), the Potency is reported as inconclusive: 56.2 µM [inhibitor, partial curve, poor fit]. In the case of `CCc1noc(-c2cn(C3CCN(C(=O)c4cc(C5CC5)[nH]n4)C3)nn2)n1` (stereo not given), the Potency is reported as inconclusive: 35.5 µM [inhibitor, partial curve]. With `CC(=O)Nc1cccc(-c2n[nH]c3c2CC(=O)N(c2ccccc2)C3)c1` the Potency was inconclusive: 56.2 µM [inhibitor, partial curve, poor fit]. In the case of `Cc1cc(C(=O)N2CCCC(Cc3noc(-c4cccnc4)n3)C2)nn1C` (stereo not given), the “activity change, negative = cytotoxicity” value is reported as inactive: -1.02%. With `CC(C(=O)NCC1CC1)N1C(=O)COc2ccc(C(=O)COc3cccc(Cl)c3)cc21` (stereo not given) the Potency was inconclusive: 50.1 µM [inhibitor, single point]. For `COc1ccc(N2CC(c3noc(-c4ccccc4C)n3)CC2=O)cc1` (stereo not given), the Potency was inconclusive: 50.1 µM [inhibitor, partial curve, poor fit]. With `Cc1ccc(CN2CCCC3(CN[S+](=O)([O-])c4ccccc4N3)C2)cc1` (stereo not given) the Potency was inconclusive: 50.1 µM [inhibitor, partial curve, poor fit]. In the case of `O=C(O)CCCC(=O)N1Cc2ccccc2CC2(CCCN(CCc3ccccc3)C2)C1` (stereo not given), the Potency is reported as inconclusive: 50.1 µM [inhibitor, partial curve, poor fit]. With `Oc1cccc(-c2cc3c(cn2)NCCN(Cc2ccccc2)C3)c1` the Potency was inconclusive: 79.4 µM [inhibitor, partial curve]. In the case of `Cc1cnc(C2CC2)n1CC1CCN(C(=O)CCCc2ccccc2)CC1`, the Potency is reported as inconclusive: 50.1 µM [inhibitor, partial curve, poor fit]. With `CCN1CC2(CCC1=O)CCN(C(=O)c1ccc(OC)c(Cl)c1)CC2` the “activity change, negative = cytotoxicity” value was inactive: -11.6%. In the case of `COC(=O)N(C)Cc1cccc(N2CCN(C(=O)c3c(Cl)cccc3Cl)CC2)c1`, the Potency is reported as inconclusive: 35.5 µM [inhibitor, partial curve]. For `O=C(NC1CCCN(c2cc(-c3ccc(F)cc3)[nH]n2)C1)c1ccc(Br)cc1` (stereo not given), the Potency was inconclusive: 39.8 µM [inhibitor, partial curve, poor fit]. In the case of `C=CCOc1c(OC)ccc2c1CN(C(C)C)C(=O)CCN2CC(O)COCc1ccco1` (stereo not given), the Potency is reported as inconclusive: 79.4 µM [inhibitor, partial curve, poor fit]. In the case of `Fc1cccc(-n2nc(C3CCOC3)nc2CC2CC2)c1` (stereo not given), the “activity change, negative = cytotoxicity” value is reported as inactive: -11.1%. In the case of `Fc1ccccc1-c1noc(-c2nc(-c3ccccc3F)no2)n1`, the “outcome” value is reported as “inactive”. With `Cc1ccc(C(=O)N2CCCC(C(=O)N3CCC(c4nc5ccncc5[nH]4)C3)C2)cc1` (stereo not given) the “activity change, negative = cytotoxicity” value was inactive: -6.25%. For `CCC1(N2CCN(S(=O)(=O)c3ccc(Cl)s3)CC2)CCN(C(=O)C(C)C)C1` (stereo not given), the Potency was inconclusive: 44.7 µM [inhibitor, partial curve, poor fit]. With `Cc1ccc(-n2cc(CN3CCN4CCCC4C3)c(-c3cccc(C)c3)n2)cc1` (stereo not given) the Potency was active: 25.1 µM. In the case of `CC(=O)Nc1ccc(-c2nnc3n2CCN(C(=O)c2ccc(Cl)cc2)C3)cc1`, the “activity change, negative = cytotoxicity” value is reported as inactive: -9.62%. With `C[S+](=O)([O-])N1CC2(Cc3ccccc31)CN([S+](=O)([O-])c1cccs1)C2` the Potency was inconclusive: 39.8 µM [inhibitor, partial curve, poor fit]. With `CCOC(=O)[C@@H]1CN(C(=O)NC2CCCC2)[C@H]2c3ccc(OC)cc3O[C@@H]12` the Potency was inconclusive: 50.1 µM [inhibitor, partial curve, poor fit]. In the case of `O=C(c1ccc(Cl)cc1)N1CCN(c2nccc(Nc3ccccc3Cl)n2)CC1`, the Potency is reported as inconclusive: 25.1 µM [inhibitor, full curve, poor fit]. With `COc1ccc(CCNc2ncnc3c2CN(c2ccc(C)cc2)C(=O)CN3C)cc1` the Potency was inconclusive: 44.7 µM [inhibitor, partial curve, poor fit].
